Among all 340,000 compounds or so, about 6,900 (2%) were called active. Cut-off read from the data, not from the text of the source: active = inhibition above about 30%; inactive = below that, where a call was filed. This is a selection; strong and weak results do not stand in their true shares. Entries without a call were filed so in the source.
Target: D(2) dopamine receptor (Homo sapiens) (UniProt P14416)
Experiment: HTS Assay for Allosteric Antagonists of the Human D2 Dopamine Receptor: Primary Screen for Antagonists; note: 0% is about no effect
Details: HEK293 TREx D2 cells, calcium flux, dopamine EC80; at 10 µM; stronger effect = higher value
Outline: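 Calcium flux kinetic readout in an inducible HEK293 TREx D2 line plated overnight at 30 C. After 180 s compound exposure, an EC80 dopamine challenge follows with another 180 s kinetic read to detect antagonism.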

UniProt P14416, sequence (P14416 whole entry, looked up): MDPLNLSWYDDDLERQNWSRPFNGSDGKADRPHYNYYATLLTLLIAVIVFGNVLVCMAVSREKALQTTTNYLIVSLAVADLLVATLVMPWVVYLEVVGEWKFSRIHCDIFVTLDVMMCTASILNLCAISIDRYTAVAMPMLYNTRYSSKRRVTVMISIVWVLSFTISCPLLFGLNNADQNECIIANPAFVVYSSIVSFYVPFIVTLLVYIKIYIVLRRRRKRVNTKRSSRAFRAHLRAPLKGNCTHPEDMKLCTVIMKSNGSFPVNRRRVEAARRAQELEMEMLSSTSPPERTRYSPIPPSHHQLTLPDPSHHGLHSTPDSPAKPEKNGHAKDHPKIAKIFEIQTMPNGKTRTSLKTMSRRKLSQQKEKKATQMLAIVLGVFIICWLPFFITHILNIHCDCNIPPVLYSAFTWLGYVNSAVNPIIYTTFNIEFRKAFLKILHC

Point of comparison: COc1ccc(NC(=O)c2nnn(CC(=O)Nc3cc(C)cc(C)c3)c2N)c(OC)c1, inhibition 17.9%. Against it:
- COc1ccc(CCC(=O)NCc2ccc3c(c2)CCN3C(=O)c2ccc(C)cc2)cc1 — lower, 15.5%
- COc1cccc(-c2nc(SCC(=O)N3CCc4ccccc43)c3c(=O)n(C)c(=O)n(C)c3n2)c1 — lower, 8.53%
- COc1ccc(NC(=O)Cn2ccn(-c3ccccc3)c(=O)c2=O)cc1 — lower, 15.8%
- Cc1ccc(-c2nc3cccnc3s2)cc1NC(=O)Cc1ccccc1 — lower, 12%
- Cc1ccc(-n2nc(C)c3c(C(=O)Nc4ccc(Br)c(C)c4)cc(C)nc32)cc1 — lower, 6.5%
- COc1ccccc1Nc1ncnc2c1nc1n2CCCC1 — lower, 11.2%
- COc1ccccc1NC(=O)CSc1nnc2c3ccccc3n(C)c2n1 — lower, -3.73%
- CC(C)COc1ccccc1C1CC(=O)Nc2cc3c(cc21)OCO3 (centres undefined) — lower, 13.5%
- COc1cccc(CNC(=O)Cn2ccc3cc(S(=O)(=O)N4CCC(C)CC4)ccc32)c1 — lower, -11.7%
- CCCCOc1ccc(C2=NC(c3ccccc3)=Nc3ccc(OC)cc3N2)cc1 — lower, -7.07%
- Cn1c(=O)c2c(-c3ccccc3Br)n(CCc3ccccc3)cc2n(C)c1=O — lower, 4.81%
- CCc1ccc(NC(=O)CSc2nnc(-c3cc4occc4n3C)n2-c2ccccc2C)cc1 — lower, 12.2%
- Clc1ccccc1Cc1cn2cc(-c3ccccc3)nc2s1 — lower, 2.62%
- C=CCc1c(C)nc2nc(SCC(=O)Nc3ccc(OCC)cc3)nn2c1C — lower, 5.92%
- Cc1cc(C)cc(NC(=O)C2(c3cccs3)CCOCC2)c1 — lower, 7.51%
- CC(C)c1ccc(Nc2ncnc3c2c(-c2ccccc2)cn3-c2ccccc2)cc1 — lower, -11.2%
- COc1ccccc1CNC(=O)Cn1nc(C)c2nn(-c3ccc(Cl)cc3)c(C)c2c1=O — lower, 5.53%
- COc1ccc(Cl)cc1NC(=O)c1c(NCc2ccc(C)o2)sc2c1CCCC2 — lower, -4.37%
- COc1cccc(N(CC(=O)N2CCC(C)CC2)S(=O)(=O)c2ccc(C)cc2)c1 — lower, 2.65%
- COCCNC(=O)c1cc2c(Cl)nc3ccc(C)cc3c2s1 — lower, 17.6%
- Cc1ccc(CN(Cc2ccco2)C(=O)c2oc3c(C)c(C)ccc3c2C)cc1 — lower, 7.01%
- CCC(C)NC(=O)CSc1nc2cc3c(cc2c(=O)n1CCCC(=O)NCc1ccc2c(c1)OCO2)OCO3 (centres undefined) — lower, 4.65%
- COc1cc(OC)c(Nc2ncnc3onc(-c4cccc(Cl)c4)c23)cc1Cl — lower, -17.4%
- Cc1cc(C)cc(OCC(=O)N(Cc2ccc(C)o2)C2CCS(=O)(=O)C2)c1 (centres undefined) — lower, -6.34%
- Cc1ccc(-c2nn3c(=O)cc(CN4CCN(C(=O)Nc5cc(Cl)ccc5C)CC4)nc3s2)cc1 — lower, 11.7%
- CCC(CC)C(=O)Nc1ccc2nc(SCC(=O)N3c4ccccc4CC3C)sc2c1 (centres undefined) — lower, 4.83%
- CCOC(=O)c1c(C)sc(-c2c(-c3ccc(OC)c(F)c3)[nH]c3c2c(=O)[nH]c(=O)n3C)c1O — lower, 7.56%
- COc1ccc(-c2noc(CCC(=O)NCc3ccc(OC)cc3OC)n2)cc1 — lower, 9.69%
- CCCN(CCC)CC(O)Cn1cc(/C=C/C(=O)c2ccc(OCC)cc2)c2ccccc21 (centres undefined) — lower, 6.72%
- CCn1cc(C(=O)N(C)Cc2ccccc2)c(=O)c2cc(S(=O)(=O)N3CCCCCC3)ccc21 — lower, 9.43%
- COc1ccc(OCC(=O)NCCS(=O)(=O)N2CCN(c3cccc(Cl)c3)CC2)cc1 — lower, -20.4%
- CCc1ccc(NC(=O)C(=O)NCC(c2cccnc2)N2CCOCC2)cc1 (centres undefined) — lower, 16.3%
- CCc1ccc(NC(=O)c2cc3c(=O)n(Cc4cccnc4)ccc3nc2C)cc1 — higher, 24.9%
- Cc1cccc(C(=O)Nc2cccc(OCc3cc(=O)n4c(C)csc4n3)c2)c1 — lower, 7.79%
- CC(C)c1nn2c(=O)cc(COC(=O)CNC(=O)c3ccccc3)nc2s1 — lower, 4.75%
- COc1ccc(NC(=O)Cc2csc(COc3cccc(C)c3)n2)c(OC)c1 — lower, 7.54%
- COc1ccc(Nc2nc(N)nc(CSc3nc4cc(OC)ccc4s3)n2)cc1 — lower, 3.33%
- Cc1ccc(CNC(=O)c2c(-c3cccc(Br)c3)noc2C)o1 — lower, -8.3%
- COC(=O)c1ccc(OCC2c3cc(OC)c(OC)cc3CCN2C(=O)c2ccccc2F)cc1 (centres undefined) — lower, 12.8%
- Cc1ccc(C)c(Cn2nc(C)n3c(cc4cc(C)ccc43)c2=O)c1 — lower, 0.437%
- CC(Nc1ccc(-c2nc(-c3ccccn3)no2)cc1[N+](=O)[O-])c1ccccc1 (centres undefined) — higher, 21.8%
- CCCCCn1c(=N)n(CC(O)COc2cccc(C)c2)c2ccccc21 (centres undefined) — lower, 5.44%
- O=C(CSCc1cnn(-c2ccccc2)c1-n1cccc1)Nc1ccc(F)cc1F — lower, -5.76%
- Cc1ccc2oc(=O)n(CCNC(=O)Nc3ccc(C)c(F)c3)c2c1 — lower, -4.3%
- Cc1ccccc1CSc1nc2cccnc2n1Cc1ccc(C(=O)NCCc2cccs2)cc1 — higher, 20.9%
- COc1ccc(Cl)cc1N(C)C(=O)C(=O)Nc1ccc2nc3n(c(=O)c2c1)CCCCC3 — lower, -3.02%
- COc1ccc(NC(=O)CSc2nc(-c3ccccc3)nc3c2Cc2c(CO)cnc(C)c2O3)cc1Cl — lower, -1.4%
- Cc1ccc(CN(C(=O)COc2ccc(Br)cc2)c2ccccn2)o1 — lower, 6.54%
- Cc1ccc(N2CCN(C(=O)c3noc4c3COc3ccc(C)cc3-4)CC2)c(C)c1 — lower, 10.5%
- Cc1ccc(C)c(N2CCN(C(=O)C(C)n3c(C)c4cnn(-c5ccccc5)c(=O)c4c3C)CC2)c1 (centres undefined) — lower, 16.5%
- Cc1ccccc1-c1noc(-c2ccccc2OCC(=O)Nc2ccccc2[N+](=O)[O-])n1 — lower, -5.83%
- CCc1ccc(S(=O)(=O)c2nnn3c2nc(NCc2ccccc2OC)c2cc(Cl)ccc23)cc1 — lower, -4.99%
- CCc1ccc(NC(=O)CN(Cc2ccccc2)S(=O)(=O)c2ccc3nc(C)sc3c2)cc1 — lower, -3.59%
- Cn1c(=O)oc2cc(S(=O)(=O)Nc3ccc(O)cc3)ccc21 — lower, -10.6%
- N#Cc1cccc(NC(=O)c2ccc3c(c2)N(Cc2cccc(Cl)c2)C(=O)c2ccccc2S3(=O)=O)c1 — lower, 8.92%
- O=C(Nc1nnc(S(=O)(=O)N2CCOCC2)s1)c1ccc(F)cc1 — higher, 23.5%
- O=C(c1ccc(F)cc1F)N1CCC(c2noc(-c3ccc(S(=O)(=O)N4CCCC4)cc3)n2)CC1 — lower, 8.39%
- CCOc1ccc(CNC(=O)C2Cc3cc(S(=O)(=O)N4CCCCCC4)ccc3N2C(C)=O)cc1 (centres undefined) — lower, 8.91%
- CCC(C(=O)NCCCN(CC)CC)n1ncn2c(cc3occc32)c1=O (centres undefined) — higher, 19.7%
- O=C(Nc1ccccc1C(F)(F)F)N1CCN(c2ccc3nnc(-c4ccc(F)cc4)n3n2)CC1 — lower, 2.3%
- O=C(CCn1cnc2onc(-c3ccc(F)cc3)c2c1=O)N1CCN(c2cccc(Cl)c2)CC1 — lower, 2.64%
- Cc1ccc(NC(=O)C2CCCN(c3ncnc4onc(C)c34)C2)cc1Cl (centres undefined) — lower, -0.665%
- O=C(c1ccccc1)c1ccc2nc(N3CCN(c4ccc(F)cc4)CC3)c3nncn3c2c1 — lower, -6.19%
- Cc1ccc(S(=O)(=O)c2nnn3c2nc(N2CCN(c4cccc(C)c4C)CC2)c2ccccc23)cc1C — lower, -14.7%
- COc1ccccc1-c1cc2nc(C)c(CCC(=O)NC3CCCCC3)c(C)n2n1 — lower, -10.2%
- O=C(Nc1cc(F)ccc1F)c1cnn2c(C(F)F)cc(-c3ccccc3)nc12 — lower, 7.39%
- COc1cc(OC)c(NC(=O)C(C)n2nc(-c3ccc(C)cc3)c3c(c2=O)CCCC3)cc1Cl (centres undefined) — lower, 4.03%
- N#Cc1ccccc1NC(=O)C(=O)NCC(c1cccnc1)N1CCc2ccccc21 (centres undefined) — lower, -4.82%
- CCOCCCNC(=O)Cn1nc(CC)n2c(cc3c(OC)cccc32)c1=O — lower, -1.1%
- COC(=O)c1ccc(NC(=O)CSc2nc3cc4ccccc4cc3[nH]2)cc1 — lower, 6.33%
- CCOC(=O)CC(NC(=O)CCc1c(C)nc2cc(-c3ccccc3)nn2c1C)c1ccc(C)cc1 (centres undefined) — lower, -11.8%
- CCN(C(=O)c1cc(S(=O)(=O)N2CCCC2)cn1C)c1ccc(OC)cc1 — lower, -7.4%
- COc1ccc(Cn2c(SCc3ccc(C(=O)NCc4cccs4)cc3)nc3ccncc32)cc1 — lower, -0.887%
- O=S(=O)(c1ccccc1)c1nc(-c2ccco2)oc1SCc1ccc(F)cc1 — lower, 3.41%
- CCCCC(=O)Nc1ccc(C(=O)OCc2cc(=O)n3ccsc3n2)cc1 — lower, 9.31%
- Cc1ccc(NC(=O)Cn2c(=O)cc(-c3ccccc3)c3c(C)nn(C)c32)c(Cl)c1 — lower, 10.8%
- Cc1ccc(C)c(NC(=O)Cn2c(=O)n(CC(=O)NCCc3ccccc3)c(=O)c3ccccc32)c1 — lower, 1.97%
- O=C(CCCn1c(=O)[nH]c2ccsc2c1=O)N1CCN(c2ccc(Cl)cc2)CC1 — lower, 5.28%

In the case of CCc1ccc(NC(=O)C/C(C)=N/NC(=O)COc2ccccc2C)cc1, the inhibition is reported as active: 39.6%.
CCN(c1ccccc1)S(=O)(=O)c1ccc2[nH]c(=O)c(=O)[nH]c2c1 was tested, and the inhibition was active: 32.9%.
For COc1ccc(C(CCN2CCN(c3ccccc3)CC2)c2c(OC)cc(OC)c3c(-c4ccccc4)cc(=O)oc23)cc1 (centres undefined), the inhibition was active: 79.4%.
For O=C(/C=C/c1ccccc1)NC1CC2CCCC(C1)N2Cc1ccccc1 (centres undefined), the inhibition was active: 87.5%.
For Cc1cc(=O)[nH]c(SCC(=O)Nc2ccc3c(c2)CCC3)c1C#N, the inhibition was active: 35.7%.
In the case of CCOc1ccc(N(CC(=O)NC(C)CC)S(C)(=O)=O)cc1 (centres undefined), the inhibition is reported as active: 37.6%.
CC1CCCN(CC(O)COC(c2ccccc2)c2ccccc2)C1 (centres undefined) was tested, and the inhibition was active: 50.2%.
With CCOc1cccc2sc(N(CCN(C)C)C(=O)c3ccc(Br)s3)nc12 the inhibition was active: 32.8%.
With COC(=O)CN1C(=O)COc2ccc(S(=O)(=O)N3CCOCC3)cc21 the inhibition was active: 46.3%.
With Clc1ccc(CN2CCC(c3nc4ccc(Cl)cc4[nH]3)CC2)cc1 the inhibition was active: 82.2%.
With O=C(NCCN1CCN(c2cccc(Cl)c2)CC1)C1CCCN(S(=O)(=O)c2cnc[nH]2)C1 (centres undefined) the inhibition was active: 81%.
CC(=O)Nc1cccc(NC(=O)Nc2cccc3ccccc23)c1 was tested, and the inhibition was active: 46%.
For CCN(CC)C(=O)C(C)OC(=O)c1ccc(O)cc1 (centres undefined), the inhibition was active: 30.3%.
In the case of COc1ccccc1-c1cc(C(=O)N/N=C/c2ccc(C)s2)c2ccccc2n1, the inhibition is reported as active: 47.7%.
COc1ccc(C23CC4CC(CC(C4)C2)C3)cc1C(=O)NCCN(C)C was tested, and the inhibition was active: 33.5%.

Source: PubChem BioAssay AID485344 (National Center for Advancing Translational Sciences (NCATS), 2010)
